Test results: paper PMC4448132
No constants are given. Whether binding was seen depends on the method and setting. In cells and extracts the contact can be indirect. Some binding calls cover weakened binding; strength is not graded here. One block for each substance: values may come before it.

Protein sequences, listed by entry. Tags and fused reporters are not part of them.
UniProt P35524: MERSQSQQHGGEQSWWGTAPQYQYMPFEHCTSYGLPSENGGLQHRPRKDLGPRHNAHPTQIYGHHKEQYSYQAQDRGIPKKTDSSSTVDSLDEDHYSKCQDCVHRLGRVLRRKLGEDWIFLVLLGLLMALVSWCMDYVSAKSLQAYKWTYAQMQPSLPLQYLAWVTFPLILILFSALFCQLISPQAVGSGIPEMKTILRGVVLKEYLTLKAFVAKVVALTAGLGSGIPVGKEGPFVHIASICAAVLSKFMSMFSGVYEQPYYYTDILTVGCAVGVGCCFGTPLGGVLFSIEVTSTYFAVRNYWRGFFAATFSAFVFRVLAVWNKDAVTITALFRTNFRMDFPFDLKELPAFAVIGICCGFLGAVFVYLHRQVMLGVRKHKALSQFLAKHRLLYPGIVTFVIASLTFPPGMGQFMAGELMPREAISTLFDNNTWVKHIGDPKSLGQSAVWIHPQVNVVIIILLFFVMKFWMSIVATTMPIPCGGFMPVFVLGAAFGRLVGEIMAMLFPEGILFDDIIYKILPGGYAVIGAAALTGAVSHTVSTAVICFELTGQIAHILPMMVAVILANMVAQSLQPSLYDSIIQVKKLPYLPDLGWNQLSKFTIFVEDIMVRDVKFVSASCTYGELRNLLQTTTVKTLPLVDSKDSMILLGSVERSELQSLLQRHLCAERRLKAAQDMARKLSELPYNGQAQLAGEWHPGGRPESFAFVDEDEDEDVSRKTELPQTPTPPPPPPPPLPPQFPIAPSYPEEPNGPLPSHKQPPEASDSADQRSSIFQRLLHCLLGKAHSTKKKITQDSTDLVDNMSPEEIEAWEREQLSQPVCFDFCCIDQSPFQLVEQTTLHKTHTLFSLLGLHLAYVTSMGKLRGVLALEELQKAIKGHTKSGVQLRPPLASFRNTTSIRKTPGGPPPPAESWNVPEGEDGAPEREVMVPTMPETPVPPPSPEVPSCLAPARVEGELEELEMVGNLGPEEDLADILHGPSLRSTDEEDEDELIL
UniProt Q56AP7: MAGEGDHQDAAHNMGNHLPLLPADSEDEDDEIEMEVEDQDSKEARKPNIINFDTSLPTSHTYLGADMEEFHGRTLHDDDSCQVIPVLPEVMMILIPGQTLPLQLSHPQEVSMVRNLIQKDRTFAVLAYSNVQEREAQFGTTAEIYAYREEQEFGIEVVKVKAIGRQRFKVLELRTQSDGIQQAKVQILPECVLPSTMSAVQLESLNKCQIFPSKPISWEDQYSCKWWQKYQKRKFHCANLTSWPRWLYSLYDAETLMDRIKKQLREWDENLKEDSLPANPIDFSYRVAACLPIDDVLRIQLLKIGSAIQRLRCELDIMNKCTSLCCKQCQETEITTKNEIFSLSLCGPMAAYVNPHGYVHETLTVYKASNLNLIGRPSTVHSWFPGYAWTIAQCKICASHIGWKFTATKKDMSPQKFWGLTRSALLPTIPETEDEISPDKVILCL
UniProt P35523: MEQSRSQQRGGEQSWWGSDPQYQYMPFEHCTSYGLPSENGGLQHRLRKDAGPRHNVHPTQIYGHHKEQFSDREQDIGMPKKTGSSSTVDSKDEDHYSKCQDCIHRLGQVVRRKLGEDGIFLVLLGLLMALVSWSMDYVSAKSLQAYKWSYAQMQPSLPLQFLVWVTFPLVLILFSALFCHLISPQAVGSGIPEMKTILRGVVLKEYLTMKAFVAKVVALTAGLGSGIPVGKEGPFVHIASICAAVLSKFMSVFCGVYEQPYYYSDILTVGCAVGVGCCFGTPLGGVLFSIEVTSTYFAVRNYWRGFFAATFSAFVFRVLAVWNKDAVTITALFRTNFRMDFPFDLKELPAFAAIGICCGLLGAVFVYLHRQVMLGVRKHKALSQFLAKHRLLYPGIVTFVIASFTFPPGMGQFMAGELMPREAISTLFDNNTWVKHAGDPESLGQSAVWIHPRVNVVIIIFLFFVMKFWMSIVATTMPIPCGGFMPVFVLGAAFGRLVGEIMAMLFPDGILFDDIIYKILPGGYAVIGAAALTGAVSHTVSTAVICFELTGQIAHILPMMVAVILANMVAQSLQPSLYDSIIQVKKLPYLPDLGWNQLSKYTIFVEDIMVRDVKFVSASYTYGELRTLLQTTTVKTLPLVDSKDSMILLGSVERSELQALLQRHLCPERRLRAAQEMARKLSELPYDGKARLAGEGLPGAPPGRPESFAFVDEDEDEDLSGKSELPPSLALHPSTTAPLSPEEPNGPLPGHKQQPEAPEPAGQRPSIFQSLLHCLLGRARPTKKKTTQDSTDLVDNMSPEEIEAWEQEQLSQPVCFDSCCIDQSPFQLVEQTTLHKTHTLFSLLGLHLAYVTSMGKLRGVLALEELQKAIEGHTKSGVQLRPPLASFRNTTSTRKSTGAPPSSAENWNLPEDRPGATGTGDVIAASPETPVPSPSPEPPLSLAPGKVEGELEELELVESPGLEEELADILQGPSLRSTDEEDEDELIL
UniProt Q13619: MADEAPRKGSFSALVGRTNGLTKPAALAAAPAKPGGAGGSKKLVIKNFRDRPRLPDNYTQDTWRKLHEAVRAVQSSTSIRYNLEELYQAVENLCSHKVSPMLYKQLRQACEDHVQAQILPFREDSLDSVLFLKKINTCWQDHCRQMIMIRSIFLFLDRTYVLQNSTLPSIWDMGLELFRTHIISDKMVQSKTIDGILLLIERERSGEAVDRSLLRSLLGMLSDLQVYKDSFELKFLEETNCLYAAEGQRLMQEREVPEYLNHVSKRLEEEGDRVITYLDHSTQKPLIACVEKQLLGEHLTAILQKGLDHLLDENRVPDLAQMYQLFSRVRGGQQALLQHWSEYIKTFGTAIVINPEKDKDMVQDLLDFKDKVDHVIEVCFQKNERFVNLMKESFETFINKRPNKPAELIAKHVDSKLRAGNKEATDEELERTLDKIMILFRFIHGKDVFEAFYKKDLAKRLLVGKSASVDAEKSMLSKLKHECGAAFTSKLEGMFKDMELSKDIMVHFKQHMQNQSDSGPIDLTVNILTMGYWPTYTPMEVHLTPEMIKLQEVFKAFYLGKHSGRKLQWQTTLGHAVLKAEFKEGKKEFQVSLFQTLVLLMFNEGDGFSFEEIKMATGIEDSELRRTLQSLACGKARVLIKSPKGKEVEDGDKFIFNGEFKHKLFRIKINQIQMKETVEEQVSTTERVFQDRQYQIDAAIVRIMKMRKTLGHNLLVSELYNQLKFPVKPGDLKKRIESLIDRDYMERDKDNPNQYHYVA
UniProt Q13620: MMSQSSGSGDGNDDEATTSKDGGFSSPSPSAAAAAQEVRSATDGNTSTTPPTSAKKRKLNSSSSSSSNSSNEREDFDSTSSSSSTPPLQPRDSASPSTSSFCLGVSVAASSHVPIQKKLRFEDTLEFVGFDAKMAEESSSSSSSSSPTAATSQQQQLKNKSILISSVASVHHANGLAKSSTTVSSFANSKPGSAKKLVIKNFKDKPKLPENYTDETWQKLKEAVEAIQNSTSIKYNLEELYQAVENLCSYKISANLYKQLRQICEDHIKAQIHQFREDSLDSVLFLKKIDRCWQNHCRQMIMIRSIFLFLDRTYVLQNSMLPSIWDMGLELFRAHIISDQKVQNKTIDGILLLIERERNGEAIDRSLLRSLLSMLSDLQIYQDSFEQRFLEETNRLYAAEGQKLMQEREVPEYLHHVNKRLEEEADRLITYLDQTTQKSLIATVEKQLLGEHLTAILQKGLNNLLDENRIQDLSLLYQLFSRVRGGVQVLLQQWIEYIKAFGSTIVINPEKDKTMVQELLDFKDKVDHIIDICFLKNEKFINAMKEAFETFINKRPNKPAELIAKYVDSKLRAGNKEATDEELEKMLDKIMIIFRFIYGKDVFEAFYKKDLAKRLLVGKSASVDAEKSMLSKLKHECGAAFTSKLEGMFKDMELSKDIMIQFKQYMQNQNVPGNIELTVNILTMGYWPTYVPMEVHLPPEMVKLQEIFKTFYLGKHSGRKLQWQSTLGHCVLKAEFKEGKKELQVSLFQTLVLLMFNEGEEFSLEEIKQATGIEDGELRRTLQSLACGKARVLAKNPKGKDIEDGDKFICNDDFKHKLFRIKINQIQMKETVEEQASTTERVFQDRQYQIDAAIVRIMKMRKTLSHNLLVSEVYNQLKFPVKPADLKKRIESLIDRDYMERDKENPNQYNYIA
UniProt Q9ESW0: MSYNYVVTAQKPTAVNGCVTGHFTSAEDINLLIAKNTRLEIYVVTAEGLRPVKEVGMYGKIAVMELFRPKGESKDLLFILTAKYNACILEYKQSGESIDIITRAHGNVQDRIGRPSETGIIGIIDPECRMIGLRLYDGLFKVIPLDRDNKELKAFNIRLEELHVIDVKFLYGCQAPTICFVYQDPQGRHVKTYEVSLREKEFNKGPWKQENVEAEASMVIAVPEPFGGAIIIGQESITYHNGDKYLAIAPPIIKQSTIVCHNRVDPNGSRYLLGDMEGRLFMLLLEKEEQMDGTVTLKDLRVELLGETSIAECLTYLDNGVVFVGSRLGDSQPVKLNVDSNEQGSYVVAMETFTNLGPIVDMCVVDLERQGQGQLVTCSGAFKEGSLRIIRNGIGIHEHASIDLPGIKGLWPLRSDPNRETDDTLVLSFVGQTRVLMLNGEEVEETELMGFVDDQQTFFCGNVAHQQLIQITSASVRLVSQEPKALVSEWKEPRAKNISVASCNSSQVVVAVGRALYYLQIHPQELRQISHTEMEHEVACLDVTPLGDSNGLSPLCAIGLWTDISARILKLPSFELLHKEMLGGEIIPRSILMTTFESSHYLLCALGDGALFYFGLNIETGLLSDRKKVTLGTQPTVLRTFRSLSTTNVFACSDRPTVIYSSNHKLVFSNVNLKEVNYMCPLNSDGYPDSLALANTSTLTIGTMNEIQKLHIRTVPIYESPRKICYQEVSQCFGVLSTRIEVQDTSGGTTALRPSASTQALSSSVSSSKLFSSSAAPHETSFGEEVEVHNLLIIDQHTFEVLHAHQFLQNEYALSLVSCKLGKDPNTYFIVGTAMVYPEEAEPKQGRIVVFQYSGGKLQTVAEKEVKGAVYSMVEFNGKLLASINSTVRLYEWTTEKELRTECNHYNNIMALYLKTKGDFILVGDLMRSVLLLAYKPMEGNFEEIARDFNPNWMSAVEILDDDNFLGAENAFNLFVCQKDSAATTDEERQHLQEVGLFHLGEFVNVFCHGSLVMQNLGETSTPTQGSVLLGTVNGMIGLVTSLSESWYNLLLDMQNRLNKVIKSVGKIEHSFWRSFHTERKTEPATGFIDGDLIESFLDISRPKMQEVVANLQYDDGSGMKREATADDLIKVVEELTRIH
UniProt D3ZK73: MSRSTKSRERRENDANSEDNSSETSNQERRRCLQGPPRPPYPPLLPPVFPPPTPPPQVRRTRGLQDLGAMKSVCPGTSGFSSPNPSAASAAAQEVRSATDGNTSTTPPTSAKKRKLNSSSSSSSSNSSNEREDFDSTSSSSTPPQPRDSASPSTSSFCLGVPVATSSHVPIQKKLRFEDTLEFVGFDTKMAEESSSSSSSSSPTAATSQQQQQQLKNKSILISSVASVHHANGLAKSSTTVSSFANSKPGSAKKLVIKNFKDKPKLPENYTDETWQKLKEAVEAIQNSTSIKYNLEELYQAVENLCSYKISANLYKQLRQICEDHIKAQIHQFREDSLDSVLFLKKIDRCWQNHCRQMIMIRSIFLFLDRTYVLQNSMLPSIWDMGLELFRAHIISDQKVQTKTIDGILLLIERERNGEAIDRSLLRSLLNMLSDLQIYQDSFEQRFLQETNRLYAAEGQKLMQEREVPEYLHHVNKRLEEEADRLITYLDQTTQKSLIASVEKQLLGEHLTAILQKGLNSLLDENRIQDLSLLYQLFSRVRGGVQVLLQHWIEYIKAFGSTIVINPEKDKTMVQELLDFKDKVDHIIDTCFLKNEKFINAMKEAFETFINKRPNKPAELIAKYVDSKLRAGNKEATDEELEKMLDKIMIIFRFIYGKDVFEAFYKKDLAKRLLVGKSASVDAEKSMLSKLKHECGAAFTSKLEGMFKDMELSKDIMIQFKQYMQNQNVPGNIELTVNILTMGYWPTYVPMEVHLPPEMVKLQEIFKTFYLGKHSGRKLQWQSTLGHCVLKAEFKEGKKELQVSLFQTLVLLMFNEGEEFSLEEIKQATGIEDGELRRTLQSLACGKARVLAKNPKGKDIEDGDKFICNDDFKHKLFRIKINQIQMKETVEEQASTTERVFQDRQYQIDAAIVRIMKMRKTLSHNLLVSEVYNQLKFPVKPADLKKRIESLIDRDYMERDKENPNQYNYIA

Columns and labels:
[1] = biological target: endogenous CLC-1 channel of rat skeletal muscle (rat (endogenous in skeletal muscle)) (UniProt P35524); assay: co-IP; rat skeletal muscle (vastus lateralis) lysate in T-PER reagent; anti-CLC-1 antibody 2 hrs at 4 °C, then protein A sepharose beads 16 hrs at 4 °C; immunoblot
[2] = biological target: HA-tagged rat cereblon (rat) (UniProt Q56AP7); assay: co-IP; HEK293T cells co-transfected, 10 uM MG132 for 24 hrs; lysed in IP buffer with 1% Triton X-100, 100 mM NaCl, pH 7.5; protein G sepharose beads pre-coated with anti-Myc or anti-HA antibody, 16 hrs at 4 °C; immunoblot
[3] = biological target: Myc-tagged human CLC-1 chloride channel (human) (UniProt P35523); assay: as above
[4] = biological target: Myc-tagged human cullin 4A (human) (UniProt Q13619); assay: as above
[5] = biological target: Myc-tagged human cullin 4B (human) (UniProt Q13620); assay: as above

Substance: endogenous DDB1 of rat skeletal muscle (from UniProt Q9ESW0 1-1140)
binding [1]: binds

Substance: endogenous CUL4B of rat skeletal muscle (from UniProt D3ZK73 1-971)
binding [1]: binds

Substance: HA-tagged human CLC-1 chloride channel (from UniProt P35523 1-988)
binding [4]: binds
binding [5]: binds

Substance: Flag-tagged human damage-specific DNA binding protein 2 (from UniProt Q92466 1-427)
binding [3]: no binding

The next lines start with the values.

binding [1]: binds
Substance: endogenous cereblon of rat skeletal muscle (from UniProt Q56AP7 1-445)

binding [2]: binds
Substance: Myc-tagged human CLC-1 chloride channel (from UniProt P35523 1-988)

binding [3]: binds
Substance: Flag-tagged human damage-specific DNA binding protein 1 (from UniProt Q16531 1-1140)
